Data as given in the BET-seq Pho4 binding data (Le et al. 2018).
The other results are listed elsewhere or left out. The energies were worked out here from pooled read counts, against the library average; single values are noisy.

Target: T1, Pho4 (S. cerevisiae) (UniProt P07270)
T1 sequence: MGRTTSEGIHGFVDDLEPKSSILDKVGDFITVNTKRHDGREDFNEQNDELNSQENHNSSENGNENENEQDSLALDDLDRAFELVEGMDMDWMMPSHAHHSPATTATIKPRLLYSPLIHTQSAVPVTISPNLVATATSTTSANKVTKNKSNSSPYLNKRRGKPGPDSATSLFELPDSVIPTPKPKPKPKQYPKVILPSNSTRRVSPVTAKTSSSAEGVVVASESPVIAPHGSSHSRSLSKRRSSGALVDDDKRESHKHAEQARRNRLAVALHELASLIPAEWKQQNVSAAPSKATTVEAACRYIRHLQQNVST
Assay: relative binding free energy (BET-seq); higher = weaker binding
Conditions: reference: library average

| Sequence | relative binding free energy [kcal/mol] |
| --- | --- |
| TGTCTCACGTGGTGTG | 0.18 |
| GTGGACACGTGTTTTG | 0.05 |
| TGGAGCACGTGGGATT | -0.05 |
| GCAAGCACGTGGGGTT | -0.09 |
| TGGTTCACGTGGCGTG | 0.27 |
| TGGTGCACGTGGTAAA | -0.09 |
| ACGCTCACGTGTTGGG | 0.34 |
| TGTCGCACGTGGAAGT | 0.03 |
| GTCCGCACGTGGGTGT | -0.11 |
| TGGAGCACGTGGTGTA | -0.08 |
| TGTTCCACGTGGGTTG | -0.11 |
| TAGTCCACGTGGGCTG | -0.07 |
| AGTCTCACGTGTTTGA | 0.29 |
| TTAAACACGTGGGTGA | -0.14 |
| TTTGTCACGTGCGTCT | 0.09 |
| AGTAACACGTGGGGTG | -0.13 |
| TGTTACACGTGAATTA | 0.41 |
| AGTTTCACGTGTTTGC | 0.17 |
| TGGTACACGTGAGCTT | 0.23 |
| TTTTGCACGTGAAAGG | 0.17 |
| GTATGCACGTGATCTG | 0.02 |
| GTTGTCACGTGTTGGC | 0.2 |
| TGTTTCACGTGCGTTC | 0.12 |
| GAGGTCACGTGGGTGG | 0.03 |
| TTGGCCACGTGAAATT | 0.39 |

| Sequence | relative binding free energy [kcal/mol] |
| --- | --- |
| GTAGTCACGTGGATTT | 0.25 |
| ATCGGCACGTGGTTGT | -0.11 |
| TTTGTCACGTGGGTAG | 0.01 |
| TGAAGCACGTGTTGTG | -0.11 |
| TGGTCCACGTGTAGGG | -0.01 |
| GGGTGCACGTGGGCGA | -0.18 |
| TTGTTCACGTGGCGTA | 0.24 |
| GGATGCACGTGGGACA | 0.02 |
| ATGACCACGTGGTTGG | -0.02 |
| GGTTACACGTGGGCGT | 0.05 |
| ATATACACGTGTTGCT | -0.05 |
| GCGGGCACGTGAACGG | 0.13 |
| TGTGGCACGTGACGTC | -0.05 |
| TGCTGCACGTGGTTCG | -0.22 |
| GGTGTCACGTGGGAAA | 0.16 |
| TACTTCACGTGCGGGT | 0.22 |
| AAACGCACGTGTGTGT | -0.14 |
| TAGAACACGTGTGGTG | 0.1 |
| TATGGCACGTGTGGGT | -0.01 |
| GCAATCACGTGGTAGG | 0.07 |
| GTCTGCACGTGTTGAG | 0.19 |
| GTGAGCACGTGTATAT | -0.03 |
| ATAGTCACGTGGTATC | 0.04 |
| GGAATCACGTGTAGGA | 0.15 |
| GGCATCACGTGGGTGT | 0.1 |

| Sequence | relative binding free energy [kcal/mol] |
| --- | --- |
| GATTGCACGTGATTAA | 0.25 |
| AATGACACGTGTTGGT | 0.07 |
| TTTTCCACGTGTCTTT | 0.14 |
| TTGGGCACGTGCATTT | -0.18 |
| AGTTGCACGTGCCGGT | -0.21 |
| AGTCTCACGTGGGTAT | 0.15 |
| GCATTCACGTGATGTG | 0.23 |
| GTAAACACGTGTTTAT | -0.09 |
| GCAAACACGTGTGTGT | -0.07 |
| CCTTGCACGTGGCGGG | -0.1 |
| TAGTCCACGTGGCGTG | -0.08 |
| TGCGGCACGTGCAGGT | -0.23 |
| CGTTTCACGTGCAGGA | 0.33 |
| AGCGGCACGTGGGGCT | -0.2 |
| TTGCCCACGTGTAGGG | -0.09 |
| GGCAACACGTGTGTTG | 0.09 |
| AGGGGCACGTGAAATT | 0.18 |
| TTGGACACGTGACGTG | 0.11 |
| ATGTACACGTGTGATC | 0.25 |
| TGTGGCACGTGAGCGC | 0.03 |
| GTTTTCACGTGGGTCG | 0.22 |
| TTGGTCACGTGGAAGA | 0.09 |
| GGTAGCACGTGGGGGC | -0.14 |
| CGTTGCACGTGTTATA | 0.05 |
| GTTGGCACGTGACGGA | 0.18 |

| Sequence | relative binding free energy [kcal/mol] |
| --- | --- |
| TTTCGCACGTGTCTTG | 0.05 |
| ACGTTCACGTGTGAAG | 0.34 |
| ATTGGCACGTGGGGCC | -0.17 |
| TTGGACACGTGTTGCT | -0.03 |
| GATTGCACGTGTTAAA | 0.03 |
| GGGAGCACGTGGTTTG | -0.01 |
| TTTCTCACGTGTAGCG | 0.39 |
| CGTTGCACGTGTAAGT | 0.04 |
| ATGAGCACGTGGTCAG | -0.2 |
| AGCGTCACGTGGTTAT | -0.04 |
| ATGTCCACGTGGTGTA | -0.1 |
| ATTGTCACGTGCGTTC | 0.15 |
| GGGGTCACGTGGTAAC | 0.13 |
| TGTGACACGTGGCGTT | -0.16 |
| TGCGTCACGTGAAGGT | 0.08 |
| TTATTCACGTGCTTAT | 0.14 |
| CGGTGCACGTGGGGAT | -0.13 |
| GGTGCCACGTGTTTTA | 0.04 |
| GGTAGCACGTGACGGT | 0.03 |
| GTTTTCACGTGGTGAA | 0.4 |
| GTTCGCACGTGGGCAG | -0.17 |
| TTAGTCACGTGTATGG | 0.15 |
| TGGAGCACGTGCCGGA | -0.03 |
| CATAGCACGTGTTAGG | -0.13 |
| GATAGCACGTGTTAGG | 0.08 |

| Sequence | relative binding free energy [kcal/mol] |
| --- | --- |
| GATGGCACGTGTAGTA | 0.13 |
| AGTAACACGTGTAATA | 0.16 |
| GGAGACACGTGGGGAT | -0.08 |
| ATATCCACGTGGGTGG | -0.23 |
| CGTTGCACGTGGCTTT | -0.04 |
| ATTTTCACGTGCGTAA | 0.11 |
| TTTCTCACGTGGGTAG | 0.13 |
| AGTTACACGTGATGTA | 0.2 |
| TGGAGCACGTGACGTA | 0.16 |
| ATCATCACGTGAGGTA | 0.35 |
| AAAGGCACGTGGAGAG | 0.01 |
| AGTTTCACGTGGCAGA | 0.27 |
| AATCTCACGTGTGTTT | 0.24 |
| AGGTACACGTGTATAA | 0.12 |
| GATTTCACGTGGGGCC | 0.28 |
| TGTAACACGTGGCGGC | 0.08 |
| CTGATCACGTGTTGTT | 0.1 |
| TAGGTCACGTGTTTAG | 0.15 |
| AGGGGCACGTGGCGAT | -0.13 |
| AGGGGCACGTGATGCT | -0.2 |
| AATCTCACGTGAAGTG | 0.38 |
| ATTAGCACGTGATTAA | -0.01 |
| TCAGGCACGTGTTTGA | -0.04 |
| GTTAACACGTGAATTG | 0.37 |
| GCGTTCACGTGTAGGT | 0.19 |

| Sequence | relative binding free energy [kcal/mol] |
| --- | --- |
| GGATGCACGTGGGTCA | -0.09 |
| GTACTCACGTGAGGGG | 0.27 |
| TTCAACACGTGGTTTT | 0.01 |
| TGGTCCACGTGTGAAG | 0.11 |
| TTGGTCACGTGAAGGG | 0.36 |
| GAGGGCACGTGGAGTA | -0.02 |
| TGGCACACGTGTTGGA | -0.02 |
| ACTCGCACGTGGGTTG | -0.06 |
| TGCGACACGTGGGGAA | -0.04 |
| GTGCACACGTGGGGGG | -0.07 |
| GGTTGCACGTGTGTAC | 0.11 |
| GTATTCACGTGGAATG | 0.29 |
| ATCTTCACGTGAATTA | 0.5 |
| GGTGTCACGTGCGGGT | 0.02 |
| TCTTTCACGTGGTTTA | 0.24 |
| AAGATCACGTGTTGAG | 0.23 |
| CGTCACACGTGTGTTT | 0.12 |
| TAGTCCACGTGTTGGT | 0.03 |
| TAAGGCACGTGTGGCT | -0.03 |
| TAGGGCACGTGTATTA | -0.06 |
| TATTTCACGTGGATAG | 0.22 |
